Measurements as given in PubChem BioAssay AID1030 (National Center for Advancing Translational Sciences (NCATS), 2008).
Where “and” joins values, the source holds several entries; their conditions need not be identical. Equal values may be shown once. About 16,000 (7.3%) of roughly 220,000 compounds were called active. The shares of active, inactive and inconclusive entries below differ from those in the screen. The call rests on the fitted dose curve; in most records, active means well fitted inhibition curve with a large enough effect (not every such curve was filed as active); inconclusive means small, poorly fitted or top-dose-only effect, or another doubt; inactive means no such curve, though single readings can be large or run the other way. Potencies of inconclusive entries are doubtful fits and often do not repeat.

Target: Aldehyde dehydrogenase 1A1 (Homo sapiens) (UniProt P00352)
Assay: qHTS Assay for Inhibitors of Aldehyde Dehydrogenase 1 (ALDH1A1);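 on activity, negative = inhibition: plate controls were no enzyme wells and a reference inhibitor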
Conditions: Purified ALDH1A1, NADH fluorescence, propionaldehyde substrate; series mostly up to 75.3 µM; activity, negative = inhibition: at the top concentration
Potency means the concentration at half of the fitted maximal effect; tags describe the fitted curve by direction and shape.

Chain of UniProt P00352 (P00352 whole entry, looked up): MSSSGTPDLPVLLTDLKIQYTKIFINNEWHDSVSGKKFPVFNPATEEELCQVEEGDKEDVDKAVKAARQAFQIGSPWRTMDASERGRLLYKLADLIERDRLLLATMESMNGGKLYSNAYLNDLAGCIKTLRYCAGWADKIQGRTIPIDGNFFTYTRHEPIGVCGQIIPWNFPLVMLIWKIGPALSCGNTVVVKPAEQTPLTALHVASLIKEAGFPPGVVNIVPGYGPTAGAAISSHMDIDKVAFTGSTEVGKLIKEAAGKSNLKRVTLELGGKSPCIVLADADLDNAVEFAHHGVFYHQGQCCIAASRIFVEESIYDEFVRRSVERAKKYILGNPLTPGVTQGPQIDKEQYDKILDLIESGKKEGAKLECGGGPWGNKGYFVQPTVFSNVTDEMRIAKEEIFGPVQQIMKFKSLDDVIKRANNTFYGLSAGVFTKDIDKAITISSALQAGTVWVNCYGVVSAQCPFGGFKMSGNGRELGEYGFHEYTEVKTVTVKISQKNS

Potency, active:
CCn1c(C)cc(C=C2C(=O)c3ccccc3C2=O)c1C 11.2 µM
O=C1/C(=C/c2ccco2)SC(=S)N1C1CCS(=O)(=O)C1 (configuration not stated) 8.91 µM
O=C(COc1ccccc1[N+](=O)[O-])N/N=C/c1ccc(O)c([N+](=O)[O-])c1 25.1 µM
CC(=O)N(CCC(c1ccccc1)c1ccco1)Cc1cccs1 (configuration not stated) 1.41 µM
CC1(c2ccccc2)NC(=S)N2C1NC(=S)N2c1ccccc1 (configuration not stated) 31.6 µM
CC1=C/C(=C/N(C)c2ccccc2)C(=O)S1 20 µM
O=C(c1cccnc1)N1N=C(C2CCCCC2)CC1(O)C(F)(F)F (configuration not stated) 12.6 µM
CCOC(=O)CCc1c(C)nc(SCCCn2c(=O)[nH]c3ccccc32)c(C#N)c1C 31.6 µM
S=c1nc[nH]c2c1sc1nc(N3CCOCC3)c3c(c12)CCCC3 1.41 µM
CNC(=O)c1c(NC(NC(=O)c2ccco2)C(=O)c2ccc(Cl)cc2)sc2c1CCCC2 (configuration not stated) 14.1 µM
COc1ccc(NCc2nnc(SCC(=O)Nc3cc(C)cc(C)c3)o2)cc1 3.16 µM

Potency, inconclusive:
Clc1ccccc1-c1nnc(-c2cccs2)o1 25.1 µM [inhibitor, partial curve]
Cc1cccc(-n2c(-c3ccco3)nc3nc4ccccc4nc32)c1 14.1 µM [inhibitor, partial curve]
CCCn1c(O)c(N=N)c2ccccc21 14.1 µM [inhibitor, partial curve]
Cn1c(=O)cc(OCC(=O)Nc2ccccn2)c2ccccc21 20 µM [inhibitor, partial curve]
O=C(NC1CCCCCCC1)c1ccc(CNc2c(N3CCOCC3)c(=O)c2=O)cc1 20 µM [inhibitor, partial curve]
COc1ccc(S(=O)(=O)Nc2nc3c(s2)CCCC3)cc1 3.55 µM [inhibitor, full curve]
COc1ccc(NC(=O)CN(C)C(C)C(=O)N2CCCCC2)cc1 (configuration not stated) 39.8 µM [inhibitor, single point]
Cc1cc(C)nc(SCc2nnc(SCC(=O)NCc3ccco3)n2-c2ccccc2)n1 20 µM [inhibitor, single point]
CC(C)(C)C1=C(C#N)C(c2cccnc2)C(C#N)=C(N)O1 (configuration not stated) 10 µM [inhibitor, partial curve, poor fit]
CCCOC(=O)Cc1c(O)c2ccccc2[nH]c1=O 39.8 µM [inhibitor, single point]
CCn1c(SCC(=O)Nc2ccccc2-c2ccccc2)nnc1-c1ccoc1C 22.4 µM [inhibitor, single point]
Cc1nc2ccccn2c1C(=O)NNC(=S)Nc1ccc(Cl)cc1 35.5 µM [inhibitor, single point]
Cn1cccc1C(=O)N1CCC2(CC1)CN(C(c1ccccc1)c1ccccc1)C2 25.1 µM [inhibitor, single point]
O=C(Cc1cccc2ccccc12)Nc1ccc(OC(F)F)c(Cl)c1 25.1 µM [inhibitor, partial curve]
COc1ccccc1-c1nc(-c2ccc(C)nc2OC)no1 44.7 µM [inhibitor, single point]
CC(C)C(=O)NC(=S)Nc1nnn(C)n1 39.8 µM [inhibitor, single point]
COC(=O)c1cc(NC(=O)/C=C/c2ccc3c(c2)OCO3)cc(C(=O)OC)c1 35.5 µM [inhibitor, single point]
CC(=O)c1ccc(N2CCN(CC(=O)Nc3ccccc3N3CCOCC3)CC2)cc1 1.41 µM [inhibitor, partial curve]
CCOC(=O)C1=C(C)NC(C)=C(C(=O)OCC)C1/C=C/c1ccccc1 39.8 µM [inhibitor, single point]
CC(C)C1N=C(c2ccc3c(c2)OCO3)CC(c2ccccc2O)N1 (configuration not stated) 15.8 µM [inhibitor, partial curve]
COc1ccc(-c2nnc(S/C(=C/c3ccc(Cl)cc3)C(=O)O)o2)cc1 39.8 µM [inhibitor, single point]
COc1cc(OC)cc(-c2nc3cc(C)ccc3o2)c1 39.8 µM [inhibitor, single point]
COc1ccccc1[C@@H]1C(c2cccc(Cl)c2)=NN(c2ccccc2)[C@H]1C(=O)N1CCOC1=O 31.6 µM [inhibitor, partial curve] and 28.2 µM [inhibitor, partial curve]
Nc1c(C(=O)CCC(=O)O)oc2ccc(Cl)cc12 28.2 µM [inhibitor, partial curve]
Cc1ccc(NC(=O)COC(=O)c2ccc3c(c2)NC(=O)C2CCCN32)cc1 (configuration not stated) 39.8 µM [inhibitor, single point]
COc1ccc2[nH]c3c(N4CC(C)OC(C)C4)ncnc3c2c1 (configuration not stated) 25.1 µM [inhibitor, partial curve]
CC(=O)c1sc(-c2ccccn2)nc1C 39.8 µM [inhibitor, single point]
CCN(CC)S(=O)(=O)c1cc(NC(=O)C(C)N2CCc3ccccc32)ccc1C (configuration not stated) 39.8 µM [inhibitor, single point]
CCOC(=O)c1c(C)oc2c1c(C(c1cccnc1)N1CCCCC1)c(O)c1ccccc12 (configuration not stated) 15.8 µM [inhibitor, single point]
O=C(c1ccccc1)c1ccc2nc[nH]c2c1 39.8 µM [inhibitor, single point]
Cc1c(C(=O)Nc2cccc(Cl)c2)oc2ccc(S(=O)(=O)N3CCC4(CC3)OCCO4)cc12 12.6 µM [inhibitor, partial curve]
O=C1CCNc2ccc(-c3ccccc3)cc21 44.7 µM [inhibitor, single point]
CCCCNc1nc2c(-c3ccccc3)nnn2c2ccccc12 17.8 µM [inhibitor, partial curve]
CN(CCc1ccccn1)C(=O)CC1C(=O)NCCN1Cc1ccccc1C(F)(F)F (configuration not stated) 37.7 µM [inhibitor, single point]
COc1ccccc1CNC(=O)c1oc2ccc(S(=O)(=O)N3CCCC3)cc2c1C 3.55 µM [inhibitor, single point]
COc1ccc2c(c1OC)C(Cc1ccccc1)N1CCc3cc4c(cc3C1C2)OCO4 (configuration not stated) 39.8 µM [inhibitor, single point]
CCOC(=O)Cn1c(CN2CCN(c3cccc(Cl)c3)CC2)nc2c1c(=O)[nH]c(=O)n2C 39.8 µM [inhibitor, single point]
Cc1ccc(NC(=O)CS(=O)CC(=O)NC(C)CCc2ccco2)cc1Cl (configuration not stated) 39.8 µM [inhibitor, single point]
COc1cc2cc(Oc3ccc4ccc(=O)oc4c3)c(=O)oc2cc1O 17.8 µM [inhibitor, single point] and 25.1 µM [inhibitor, single point]

activity, negative = inhibition, inactive:
Cc1ccc(-c2csc3nc(SCC(N)=O)n(Cc4ccccc4)c(=O)c23)cc1 10.1%
O=C1OC(C(=O)Nc2nccs2)Cc2ccccc21 (configuration not stated) 4.81%
Cc1nn2cc(-c3ccc(Cl)cc3)cnc2c1Cl -9.2%
Cc1[nH]c2ccccc2c1C(=O)NS(=O)(=O)Nc1ccc(Cl)cc1 0.0618%
CCNC(=O)c1c(C)nc2ccccn12 2.56%
Cc1nc2ccccc2c(C)c1C(=O)c1ccccc1 4.78%
O=C(NCC1CCCO1)c1nc2c(nnn2Cc2ccccc2Cl)c(=O)[nH]1 (configuration not stated) 5.74%
COCc1cc(Sc2ccc(Cl)cc2)nc(C)n1 7.36%
Cc1ccc(C)c(-c2csc(N/N=C/c3ccco3)n2)c1 -8.59%
O=S(=O)(Nc1ccc(Cc2ccncc2)cc1)c1ccc(Br)s1 7.72%
CCOc1ccc(C(CC(=O)O)NC(=O)C23CC4CC(CC(C4)C2)C3)cc1OC (configuration not stated) 3.06%
S=c1[nH]nc(-c2ccc(Cl)cc2)n1CC1CCCO1 (configuration not stated) -4.07%
CCCC(=O)OCC(=O)Nc1cc(Cl)ccc1[N+](=O)[O-] -0.69%
COCCCNC(=S)NNC(=O)c1csc2ccccc12 10.9%
CCCn1c(SCC(=O)N(CC)CC)nnc1-c1ccncc1 2.72%
CCOC(=O)C1=C(C)SC2=NS(=O)(=O)CCN21 9.38%
Cc1ccc(C2C(C#N)=C(N)Oc3nc(-c4ccccc4)[nH]c32)o1 (configuration not stated) -7.05%
CC(NC(=O)C(=O)N/N=C/c1ccc(Cl)cc1)c1ccccc1 (configuration not stated) -4.56%
COC(=O)N[C@@H](/C=C/c1ccccc1)C[N+](=O)[O-] 8.27%
O=C(NNC(=S)NCc1ccco1)c1ccc(Cl)s1 -11.7%
O=C(CN1CCN(c2ccccn2)CC1)Nc1ccccc1 -5.26%
CCCCNCc1cccn1-c1ccccc1 -9.73%
O=C(c1ccccc1)c1ccc(CN2C(=O)c3ccccc3C2=O)o1 -2.19%
CC(C)Oc1ccc(C(=O)NC(=S)N2CCOCC2)cc1 -0.0774%
COc1ccccc1NC(=O)NCC(c1ccco1)N1CCCCC1 (configuration not stated) 2.61%
OCCC1CN(Cc2cc3c(cc2Cl)OCO3)CCN1C1CCCCC1 (configuration not stated) -2.05%
Cc1nn(C)cc1CN(C)Cc1c(C(=O)N(C)Cc2ccccc2)nc2ccccn12 12.7%
